Values marked as one replicate rest on one cluster of the flow cell; about a third of the high ones do not repeat.
Test system: ATP
Test: switch fluorescence ratio, 500 uM ATP over buffer (Cy3 cluster intensity, sum of 5 cycles each) (fold (ratio)); higher = stronger signal-on switching upon ATP binding; sequences stand for … in TCGTCGGCAGCGTCAGATGTGTATAAGAGACAGTTTTTTTTTTTTTTTTTTTTTTTTT…TC
Conditions: aptamer strand: ATP DNA aptamer (quencher-CACCTGGGGGAGTATTGCGGAGGAAGG + anchor), 100 nM annealed; ATP concentration: 500 uM; one replicate
How it was run: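 The quencher-labelled ATP aptamer, at 100 nM, was annealed to Cy3-labelled switching-strand clusters on a modified Illumina MiSeq flow-cell. The clusters were imaged in selection buffer, then after 15 min with 500 uM ATP at 22 °C, and this buffer/ATP cycle ran five times with NaOH stripping and re-annealing between runs. Per-cluster fluorescence ratios, summed target-cycle over summed buffer-cycle Cy3 intensity, were averaged per switch-domain sequence. Clusters outside 100-1000 RFU were excluded.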
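Also: ATP exposure 15 min at 22 °C before imaging.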

TGCAGAGGGG
switch fluorescence ratio: 0.974

TAGGCAACAT
switch fluorescence ratio: 1.02

AAGTTCCGCG
switch fluorescence ratio: 1.12

GCTAGGTGTT
switch fluorescence ratio: 0.994

TTTGTCTAAG
switch fluorescence ratio: 1.01

GGGGGCTGTG
switch fluorescence ratio: 1.12

TTCGATCAGT
switch fluorescence ratio: 0.982

CACATGGCCT
switch fluorescence ratio: 1.05

CATATTCTAA
switch fluorescence ratio: 0.948

CATAATTTCG
switch fluorescence ratio: 1.02

TCTGCACAGT
switch fluorescence ratio: 0.97

GGTTAGAGA
switch fluorescence ratio: 1.05

AGGTTGATTG
switch fluorescence ratio: 0.986

AGATGCCGGG
switch fluorescence ratio: 0.949

GCTAGTTGTT
switch fluorescence ratio: 0.977

CATGGCGTTG
switch fluorescence ratio: 0.988

CTAAATGTCG
switch fluorescence ratio: 0.913

ATCATATTAC
switch fluorescence ratio: 1.02

CTGGTACACG
switch fluorescence ratio: 0.923

TCCTGCATAG
switch fluorescence ratio: 2.13

AAAGAATGCA
switch fluorescence ratio: 1

CTTTTTTGTG
switch fluorescence ratio: 1.01

TTTACGGCGA
switch fluorescence ratio: 1.6

AAGGGAGCC
switch fluorescence ratio: 0.961

CTTCCGTTGA
switch fluorescence ratio: 1.45

GTAGCAGGTG
switch fluorescence ratio: 2.93

AGTCAATGGA
switch fluorescence ratio: 1.01

TGCAAAATAG
switch fluorescence ratio: 0.972

ACGCGTCGTT
switch fluorescence ratio: 0.991

CGGAGGAAGT
switch fluorescence ratio: 1.01

CTCCTCCATT
switch fluorescence ratio: 1.27

GTCAGTGTGG
switch fluorescence ratio: 1.01

GTACGCAGTG
switch fluorescence ratio: 1.01

CAAATCGTGA
switch fluorescence ratio: 1.01

TTAATCCG
switch fluorescence ratio: 1.03

TGGCCCCCAT
switch fluorescence ratio: 1.11

CTGATACCAC
switch fluorescence ratio: 1.13

TTGCCACGTA
switch fluorescence ratio: 1.04

ACGGTGATAA
switch fluorescence ratio: 1.01

GCTCTTGTGA
switch fluorescence ratio: 1.01

ATTGAGCTC
switch fluorescence ratio: 1.03

AAGGGAAAG
switch fluorescence ratio: 1.02

GTAATGTCGG
switch fluorescence ratio: 0.978

TCGGATTACT
switch fluorescence ratio: 1.21

ACACTGCTGG
switch fluorescence ratio: 1.05

GATCGCTCTC
switch fluorescence ratio: 1.42

ATGGGCTTTA
switch fluorescence ratio: 0.978

CGTCCTGGGA
switch fluorescence ratio: 0.972

GGAGGGGAAC
switch fluorescence ratio: 1.17

TTGCGTGAG
switch fluorescence ratio: 1

GGTCAAGGAT
switch fluorescence ratio: 0.95

CGCAGGAGTG
switch fluorescence ratio: 1.05

GCTCCCGATT
switch fluorescence ratio: 1.37

TTTTCCGTA
switch fluorescence ratio: 0.967

ACAACGTGGG
switch fluorescence ratio: 0.994

GCAAAGTGAC
switch fluorescence ratio: 1.08

GGCCCTAAAA
switch fluorescence ratio: 1.02

TAGATCAGTA
switch fluorescence ratio: 1.01

AGTAGGTGAG
switch fluorescence ratio: 0.996

TTCAATGTTC
switch fluorescence ratio: 1.07

AATAACTGAG
switch fluorescence ratio: 1.1

GCGGATAAAG
switch fluorescence ratio: 0.997

GGTGTGTCAT
switch fluorescence ratio: 0.987

TGGATACGAG
switch fluorescence ratio: 1.03

TGGAGGGACA
switch fluorescence ratio: 1.01

GGGGGGCACA
switch fluorescence ratio: 0.997

CTTGCTGTTT
switch fluorescence ratio: 1.04

AGGACATCAG
switch fluorescence ratio: 1.06

CCCTTAAAGC
switch fluorescence ratio: 0.985

TTGCCAATTA
switch fluorescence ratio: 0.995

CAACGAAGAC
switch fluorescence ratio: 1.85

TTACCCCTCT
switch fluorescence ratio: 1.08

AGTTAAATCG
switch fluorescence ratio: 1.02

TAATAAAAAT
switch fluorescence ratio: 0.983

CGCTTTGGTC
switch fluorescence ratio: 1.88

CATAACTTTA
switch fluorescence ratio: 1.04

CATAGCGGAC
switch fluorescence ratio: 3

TCTAGCATTG
switch fluorescence ratio: 1.01

AATACGTT
switch fluorescence ratio: 1.03

ATTCCCCTAC
switch fluorescence ratio: 1.15

GGGGCGAACT
switch fluorescence ratio: 1.01

TAGCGTGAGG
switch fluorescence ratio: 0.988

GGGATCGTTC
switch fluorescence ratio: 1.05

AGCATGACAC
switch fluorescence ratio: 1.3

GAACTGATT
switch fluorescence ratio: 0.988

ACTGGGATG
switch fluorescence ratio: 0.955

GCAGATTATT
switch fluorescence ratio: 0.989

AGTCGCCGT
switch fluorescence ratio: 0.978

ATGAATCAAG
switch fluorescence ratio: 0.998

ATTCCATTTA
switch fluorescence ratio: 0.978

CGCAGTTGTT
switch fluorescence ratio: 1.02

ATCAGAGATT
switch fluorescence ratio: 1.03

ACGAAGAGT
switch fluorescence ratio: 1.01

GGTGAGATCG
switch fluorescence ratio: 1

CTGGATAGGT
switch fluorescence ratio: 0.999

GAAGTGAAAG
switch fluorescence ratio: 0.985

TCAATCCATC
switch fluorescence ratio: 0.955

GACTAGATGG
switch fluorescence ratio: 0.973

TAGCTGGATC
switch fluorescence ratio: 1.09

GTTCGCGTTC
switch fluorescence ratio: 1.15

GCCTTGGCGA
switch fluorescence ratio: 0.999

GTCAGATTCC
switch fluorescence ratio: 1.06

GCTCAACGTT
switch fluorescence ratio: 1.03

GTTTTATCCA
switch fluorescence ratio: 0.977

TTGACGAGGG
switch fluorescence ratio: 0.991

TGATTGTTTC
switch fluorescence ratio: 0.985

ATCACTACT
switch fluorescence ratio: 1.05

CCCAATAGGA
switch fluorescence ratio: 1.16

AACGCGTAGG
switch fluorescence ratio: 1.02

GTTTGCAACC
switch fluorescence ratio: 1.06

AGTGGAGGCA
switch fluorescence ratio: 0.963

CAAATGGCTC
switch fluorescence ratio: 1.02

GGTTTTTGT
switch fluorescence ratio: 1.01

TGATCAATCT
switch fluorescence ratio: 1.03

AGCATATGGA
switch fluorescence ratio: 0.985

TTTGACCAAG
switch fluorescence ratio: 1.03

TTGAAAACGG
switch fluorescence ratio: 0.994

TGTCCTGTGA
switch fluorescence ratio: 1.02

CGGCCAAAGT
switch fluorescence ratio: 0.994

ATAGTTCTTA
switch fluorescence ratio: 0.98

AGATAGGCGA
switch fluorescence ratio: 0.983

TGTATATATG
switch fluorescence ratio: 0.989

TTTACGCTTT
switch fluorescence ratio: 1.04

GCTCTCAGCG
switch fluorescence ratio: 0.999

ACATCCCT
switch fluorescence ratio: 1.11

TTACTAACCG
switch fluorescence ratio: 1.13

ATTGACCGAA
switch fluorescence ratio: 1.05

CATAAAGAGC
switch fluorescence ratio: 1.03

TACAAGAATT
switch fluorescence ratio: 1.04

CGTATGGAAA
switch fluorescence ratio: 0.966

TCAGCCTCTT
switch fluorescence ratio: 0.97

AGATATTTAA
switch fluorescence ratio: 1

TCGAAATTGA
switch fluorescence ratio: 1

ATAGCCGCAC
switch fluorescence ratio: 1.72

TTACGGCTGG
switch fluorescence ratio: 1.02

TCTTAAAGC
switch fluorescence ratio: 1.02

CCGTTATCAT
switch fluorescence ratio: 0.964

TATTTAAGGC
switch fluorescence ratio: 0.976

GTAAGTTTTG
switch fluorescence ratio: 1.01

AGATTCATCG
switch fluorescence ratio: 1.03

TGTTGCTGAT
switch fluorescence ratio: 0.976

GCTGATATGA
switch fluorescence ratio: 0.993

CATATGATTA
switch fluorescence ratio: 0.996

CCAGCTTGTA
switch fluorescence ratio: 1.03

TTACTAACT
switch fluorescence ratio: 1.14

TAATTAGGTC
switch fluorescence ratio: 0.994

AGATACGTGA
switch fluorescence ratio: 0.988

TTCGGCCTCC
switch fluorescence ratio: 2.15

GTACAGAGTG
switch fluorescence ratio: 1.04

TATCTTTACA
switch fluorescence ratio: 1.04

ATGTCATAGC
switch fluorescence ratio: 1.04

TCGAACACAA
switch fluorescence ratio: 2.89

CTGGGATGA
switch fluorescence ratio: 0.966

GGCACGTTGC
switch fluorescence ratio: 1.05

AGCGCTACGG
switch fluorescence ratio: 1.05

ATGCATTAAC
switch fluorescence ratio: 1.12

TAACTCGGGA
switch fluorescence ratio: 1.15

GTGTAAAGAA
switch fluorescence ratio: 1.03

CAAGGTCGTG
switch fluorescence ratio: 0.974

TGGATGAGGA
switch fluorescence ratio: 0.931

CGGTGGCCGC
switch fluorescence ratio: 0.966

ATCGTATTGA
switch fluorescence ratio: 0.937

CGATGGCCAT
switch fluorescence ratio: 0.991

TATGAGGCTG
switch fluorescence ratio: 0.977

AACGGGCTCA
switch fluorescence ratio: 1.02

TTTGGCCCAC
switch fluorescence ratio: 1.01

GAGAAAGACT
switch fluorescence ratio: 1.05

CGACTTACTC
switch fluorescence ratio: 1.92

CACGTTTCTA
switch fluorescence ratio: 0.959

ATTCTAGGAT
switch fluorescence ratio: 0.945

CTTAGGAGCG
switch fluorescence ratio: 0.979

ACCGCTAGTC
switch fluorescence ratio: 2.13

TACACTCAT
switch fluorescence ratio: 1.01

TCGGGCACCT
switch fluorescence ratio: 1.28

TACAACGGGG
switch fluorescence ratio: 1.02

ATGCGGTATC
switch fluorescence ratio: 0.986

CGCCGCCATT
switch fluorescence ratio: 1.78

TTTCCTGCCT
switch fluorescence ratio: 1.16

CTGTAAAAGT
switch fluorescence ratio: 1.01

CTCTACGTTA
switch fluorescence ratio: 1.27

TACTGGGGAT
switch fluorescence ratio: 1

GGCCAGCATG
switch fluorescence ratio: 1

GAAATCGGG
switch fluorescence ratio: 0.946

GCACGCAATG
switch fluorescence ratio: 2.65

TGCTTTCGTT
switch fluorescence ratio: 0.983

GCCGGGCAAT
switch fluorescence ratio: 1.07

GCGGTTATGG
switch fluorescence ratio: 0.972

AAGCGGACTT
switch fluorescence ratio: 1.04

TGCGAGATGC
switch fluorescence ratio: 1.05

TCCCACAAAC
switch fluorescence ratio: 2

CCAACGGCTG
switch fluorescence ratio: 1.01

CAATAGGTCC
switch fluorescence ratio: 1.04

CCATAGGTCG
switch fluorescence ratio: 0.923

CCGTGACTTG
switch fluorescence ratio: 0.997

CTGGCCACAC
switch fluorescence ratio: 1.03

GGACCATGCG
switch fluorescence ratio: 1.26

ACAGGCCGG
switch fluorescence ratio: 0.921

TTTTGTTGAC
switch fluorescence ratio: 0.969

GATAACGTGC
switch fluorescence ratio: 1.03

ATATGTCGTG
switch fluorescence ratio: 0.953

TTGGCGTGGT
switch fluorescence ratio: 1.02

From the supplement of paper PMC10126150
